The results in this text go back to the RNAGym collection of RNA variant scans (doi:10.7554/elife.90254).

B1: LINE1-mini (parent)
chain: GGCAGAGCUCAACACAGCGUGGCAAAGUGGCUGUGGCUAGACUGCC

Read counts are not given, so values of variants with three or more changes are uncertain.

Variants of B1 are the subject of the series. Description: self-cleavage, relative activity (ratio to wild type); higher = more cleavage; in vitro, sequencing; the parent is a self-cleaving ribozyme.
Consider GGCACAGCGCAACACAGUGUGGCAAAGUGGCUGUGGCUAGACUGCC, for which the self-cleavage came to 0.03.
Turning to GGCACAGCUCAACACAGCGUGGCAAAGUUGCCGUGGCUAGACUGUC, the self-cleavage turned out to be 0.02.
As for GGCACAGCUCAACACAGCGUGACAAAGUGGCUGUGGGUAGACUGCC, the figure is 0.02; as for GGCAUGGCCCAACACAGCGUGGCAAAGUGGCUGUGGCUAGACUCCC, 0.03.
As for GGCACAGCUCAACACAGCGUGGCAAAGUGGCUGUGGCCUGACUGCC, the self-cleavage came to 0.09.
The result for GGCACAGCUCAACACAGCGUGGCAAAGGGGCUGUGGCAAGACUGCC reads 0.01.
The result for GGCACAGCACGACACAGCGUGGAAAAGUGGCUGUGGCUAGAGUGCC reads 0.01; that for GGCACAGCUCAACACAGCUUGGCAAAGUGGCUAUGGCUAGACUGCC, 0.02; that for GGCACAGCUCAACACAGCGAGGCUAAGUGGCUGUGACUAGACUGCC, 0.02.
GGCACAGCUCAACACAGCGUGACAAAGUGCCUGUGGCUUGACUGCC: the self-cleavage worked out at 0.31.
Take GGCACAGCUCAACACAGCUUGGUAAAGUCGCUAUGGCUAGACUGGC: the self-cleavage was determined as 0.04.
The result for GGCACAGCUCAACACAGCGUGGCAAAUUGGCUGUGGCUAAACUGCC reads 0.07.
With GGCACAGCGCUUCACAGCGUGGCAAAGUGGCUGUGGCUAGAAUGCC, the self-cleavage stood at 0.
For GGCACAGCUCAACACAGCGGGGCAAAGCCGCUGUGGCUAGACUGCC, the self-cleavage was 0.02.
On to GGCACAGCUCAACACAGCGUGGCAAAGUGACUGUGGCUAGGCUACC, for which the self-cleavage came out at 0.1.
Consider GGCAUGGCUCAAGACAGCGUGUCAAAGUAGCUGUGGCUAGACUGCC, for which the self-cleavage is 2.9.
As for GGCAUUGCUCGACACAGCGUGGCAGAUUGGCUGUGGCUAGACUGCC, the figure is 0.02.
In the case of GGCAUCGCUCACCACGCCGUGGCAUAGUGGCUGUGGCUAAACUGCC, the self-cleavage came out at 0.03.
As for GGCAUCGCUCAACACUGCGUGCCAAACUGGCUGUGGCUAGACUGCC, the self-cleavage was 0.02.
On to GGCAUCGCUCAACACAGCGUGGUACAGUGGCUGUGGCUAGACUGCC, for which the self-cleavage was determined as 0.02.
As to GGCACAGCUCAACACAGCGUGGCAAAGUGACUGAGGCUUGACUGCC, the self-cleavage was found to be 0.16.
For the variant GGCACAGCUCAACACAGCGUGGCAAAGUGGCUGUGGCGAGACUGUC, the self-cleavage stood at 0.09.
Turning to GGCACAGCUCAACACAGCGUGGCAAAGAGGGUGUGGCUAGCCUGCC, the self-cleavage came to 0.02.
GGCACAGCUCAACACAGCGCGGCAAAGUGGCUGUGGCUAAACUGCC: the self-cleavage was 0.05.
As to GGCACAGCGCAACGCAGCGUGGCAAAGUUGCUGUGGCUAGACUGCC, the self-cleavage came out at 0.02.
The result for GGCACAGCUCAACACAGCGUGCCAAAGUGGCUGUCGCUAGACUGCA reads 0.07; that for GGCAUCGUUCAACACAGCGUGGCAAAGUGGCUGUGGCUAGACUGCC, 0.37.
As to GGCAUCGCUCAACACAGCGUGGCAAAGUGGCUGUGGCAAGACUACC, the self-cleavage amounted to 0.02.
The result for GGCACAGCUCAACACAGCGUGACAAAGUGGCAGUGGCUAGACUGCC reads 0.02.
In the case of GGCACAGCUCAACACAGCUUGGCAAAGUGGCUGUGGCUAGUCUACC, the self-cleavage was 0.08.
As for GGCACAGCGCAACACAGCGUGGCAACGUGGCUGUGGCUAGACUGUC, the figure is 0.08; as for GGCACAGCCCAACGAAGCGUGGCAAAGUGGCGUUGGCUAGACUGCC, 0.02; as for GGCACAGCACAAUACAGCGGGGCAAAGAGGCUGUGGCUAGCCAGCC, 0.05.
The result for GGCAUGACUCAUCACAGCGUGGUAAAAUCGCUGUGGCUAGACUGCC reads 0.03; that for GGCACAGCUCAACACAGCGUGGCAAAGUGGCGGUGGCUCGACUGCC, 0.08.
Take GGCACAGCUCAACACAGCGUGUCAAAGUGGCUGGGGCUAGGCUGCC: the self-cleavage was 0.
As for GGCAUUGCUCAGAACAGUGUGGCAAAGUGGCUGUGUCUAGACUGCC, the figure is 0.03; as for GGCACAGCUCAACACAGCGCGGCAAAGUGGCAGUGGAUAGACUGCC, 0.01; as for GGCAUCGCUCAACACAGCGUGGCAAAGUGGCUGGGGAUAGACUGCG, 0.01.
GGCACAGCUCAACACAGCGCCGCAAAGUGGCUGUGGCCAGACUGCC: the self-cleavage was 0.02.
GGCACAGCUCAACACAGCGUGGCAAAAUGGCUGUGGCUAGGCUGCC: the self-cleavage came out at 0.24.
As for GGCACAGCUCAACACAGCGUGGCAAAUUGUCUGUGGCUAGAAUGCC, the figure is 0.15; as for GGCACAGCUCAACACAGCCUGGCAAAGUGGCUGUGGCUACCCUGCC, 0.02; as for GGCACAGCUCAACACAGCGUGGCAAAGUGGCAGCGGCUAGACUGCC, 0.03.
As for GGCAUGGCUCUCCACAGCGUGGCAAAGUGGCUGUGGCUAGACGGCC, the figure is 0; as for GGCAUGGCUCAACACAGCGUGGCAAAGUGGCUGUGGCUAAGCUGCC, 0.13.
For the variant GGCACAGCUCAACACAGCGUGGCAAAGUGGCUGUGGCGAGACUGCA, the self-cleavage came to 0.02.
As for GGCAUUGCUCAAUGCAGCGUGGCAAAGUGGCUGUGUCUAGACUGCC, the self-cleavage was 0.06.
As for GGCACAGCGCAACACAGCGUGGCAAAGUGGCUGUGGCUAGAUUGCC, the figure is 0.04.
GGCACAGCACAACACAGCGUGGCAAUGUGGCUGUGGCGAGACUUCC: the self-cleavage amounted to 0.1.
Take GGCAUGGCUCAACCCAGCGUGGCAAAGUGGCUGUGGAUAGACUGCC: the self-cleavage is 0.05.
Take GGCACAGCUCAACACAGCGUGGCAAAAUUGCUGUGGCAAGACUGCC: the self-cleavage stood at 0.
Take GGCACAGCUCAACACAGCGUUGCAAAGUGGCUGUGGCUAAAUUGCC: the self-cleavage was determined as 0.03.
Consider GGCACAGCUCAACACAGCGUGGCAAAGUGGCUCUGGCUAGAUUGCC, for which the self-cleavage came to 0.03.
As for GGCACAGCUCAACACAGCCUGGUAAUGUGGCUGUGGCUAGACUGCC, the self-cleavage is 0.04.
For GGCAUCGCUCAACACAGCGUGGCAAAGUGGCUGUUGCUAGACUGCC, the self-cleavage worked out at 0.1.
Take GGCACAGCACAACACAGCGUGGCAAAGUGGCUGUGUCUAGACUGCA: the self-cleavage was 0.04.
With GGCACAGCUCAACACAGCGUUGCAAAGUGGCUGUGGCUAGGCUCCC, the self-cleavage was found to be 0.19.
Consider GGCACAGCGCAACACAGCGCGUCAUAGUCGCUGUGGCUAGACUGCC, for which the self-cleavage was determined as 0.06.
The result for GGCAUCGCGCAACACAGCCUGGCAAAGUGGCUGUGGCUAGACUGCC reads 0.01; that for GGCACAGCUCAACACAGCGGGGCAAAGUGGCUGUAGCUAGACUGCC, 0.09; that for GGCACAGCUCAACACAGCGUGUUAAAGUGGCUGUGGCAUGACUGCC, 0.01.
As to GGCACAGCCCAUCACAUCGUGGCAAAGUGGCUGUGGCUAGCCUGCC, the self-cleavage turned out to be 0.02.
In the case of GGCAUGGCUCAACACAGCGUGGCAAUGUGGCUGUGGCUAGACUGCC, the self-cleavage turned out to be 0.05.
As for GGCACAGCUCAACACAGCGUGGCAAAGUCGCUGUGGCUUGACUGCC, the figure is 0.02; as for GGCACAGCUCAACACAGCGUGGCAAAGUGUCAGUGGCUAGAGUGCC, 0.04.
As for GGCACAGCUCAACACAGCGUGGCAAAGUGGCUGUGGCAUGACUGCC, the figure is 0.12; as for GGCACAGCUCAACACAGCGUGCAAAAGUGGCUGUGGCUAGACUGCG, 0.04; as for GGCAUUGCUCAACACAGCGUGGCAAAGUGGCUGUGGCUUGACUGCC, 0.12.
Take GGCAUGGCUCAACACAGCGUGGCAAAGUGGCUGUGGCUAGACUUCC: the self-cleavage amounted to 0.06.
On to GGCACAGCUCAACACAGCGUGCCAAAGUGGCUGUGGCUAGACUGUC, for which the self-cleavage was determined as 0.06.
Consider GGCACAGCUCAACACAGCGAGGCAAAGUGGCUGUGGCUAGACUGGA, for which the self-cleavage is 0.02.
With GGCACAGCUCAACACAGCGUGGCAAAGUGGCUGUAGUUAGACUGCU, the self-cleavage came out at 0.02.
As for GGCACAGCUCAACACAGCGUGACAAAUUGGCUGUGGCUAGACUGCC, the figure is 0.03.
GGCACAGCUCAACACAGCGUGCCAAAGUGGCUGUGGCUAGUCUGCC: the self-cleavage came out at 0.07.
Turning to GGCACAGCUCAACACAGCGUGGCAAAGGGGCUGUGUCUAGACUGCC, the self-cleavage was found to be 0.01.
Consider GGCACAGCACAACACAGCGUGGCAAAGUGGCUGUUGCUAGACUGCC, for which the self-cleavage came to 0.05.
For GGCAUCGCUCAACACAGCGUGGCAACGUGCCUGUGGCUCGACUGCC, the self-cleavage was found to be 0.03.
For the variant GGCACAGCUCAACACAGCGUGGCAAAGUGGCUGUGGCUAGACUACA, the self-cleavage was 0.04.
Turning to GGCAUUGUUCAACACAGCGUGGCAGAGUGGCUGUUGCUAGACUGCC, the self-cleavage was determined as 0.13.
As to GGCACAGCGCAUCACGGCGUGGCAAAGUGGCUGUGGCUAGACUGCC, the self-cleavage was 0.01.
As to GGCACAGCUCAACACAGCUUGCCAAAGUGGCUGUGGCUAGACUGCC, the self-cleavage amounted to 0.03.
As for GGCACAGCUCAACACAGCCUAGCAAAGUGGCUGUCGCUAGCCUGCC, the self-cleavage was 0.04.
GGCACAGCUCAACACAGCGUGGCAAAAUGGCUGUGGCUAGAUUGCC: the self-cleavage stood at 0.07.
As for GGCACAGCUCAACACAGCGAGGCAAAGUGGCCGUGCCUAGACUGCC, the figure is 0.01; as for GGCACAGCACAACACAACGUGGCAAAGUGGCUGUGGCUAGACUGCC, 0.03; as for GGCAUCGCUCAACACAGCGUGGCCAAGGGGCUGUGGCUGGACUGCC, 0.02.
Take GGCAUCGCUCAACGCAGUGUGGCAGAGUGGCUAAGGCUAGACUGCC: the self-cleavage turned out to be 0.01.
Take GGCACAGCUCAACACAGCGUCGCAAAGUGGCCGUCGCUAGACUGCC: the self-cleavage is 0.04.
The result for GGCACAGCUCAACACAGCGUGGCAAAGUGGCUGGGGCAAUACUGCC reads 0.05; that for GGCACAGCUCAACACAGCGUGGCAAAGUGGCUGUGGCUAAACCGCC, 0.03.
As for GGCACAGCUCAACACAGCCUGGCAAAGUGGCUGUGGCUACACUGCC, the self-cleavage came out at 0.07.
GGCACAGCCCAACAAAGCGUGGCAAACUGGCUGUGGCAAAACUGCC: the self-cleavage stood at 0.02.
With GGCAUGGCUCAACACAGCGGGGCAAAGUGGCUAUGGCUAGACUGCC, the self-cleavage was found to be 0.02.
For GGCAUCGGUCAACACAGCGUGGCAAAGUGGCUGUGGCUAGAAUGCC, the self-cleavage came to 0.05.
On to GGCACAGCUCAACACAGCGUGGCAAAGUGUCUGUGGCUAGAGUGCC, for which the self-cleavage stood at 0.11.
As for GGCACAGCACUACACAGCGUGGCAAAGUGGCUGUGGCUAGACUGCC, the self-cleavage is 0.03.
On to GGCAUUGAUCAACACAGCAUGGCAAAGUGGGUGUGGCUAGACUGCC, for which the self-cleavage came out at 1.15.
On to GGCACAGCGCAACACAGCGUGGCAAAGUGGCUGUAGCUAGACUGCC, for which the self-cleavage is 0.03.
Take GGCACAGCUCAACACAGCGUGGCAAAGUAGCUGUGGUUAGACUGCC: the self-cleavage amounted to 0.04.
Take GGCACAGCUCAACACAGCGUGGCAAAGUGUAUGUGGCUAGACUGCC: the self-cleavage is 0.06.
As to GGCAUGGCUAAACAGAGCGUAGCAAAGUGGCUGUGGCUAGACUGCC, the self-cleavage was 0.03.
As for GGCACAGCUCAACACAGCGGGGCAAAGUGGCUGUGGCUAGUCUGCC, the figure is 0.01; as for GGCACAGCUCAACACAGCGUGGCAAAAUGGAUUUGGCUAGACUGCC, 0.17; as for GGCACAGCACACCACAGAGUGGCAAAGUGGCUGUGGCUAGACUGCC, 0.03.
On to GGCACAGCUCAACACAGCGUGUCAAUGUGGCUGUGGCUAGACUGCU, for which the self-cleavage came out at 0.06.
Take GGCACAGCACAACACAGCGUGGCAAAGUGGCUGUGGGUAGACUGCC: the self-cleavage was determined as 0.09.
With GGCACAGCUCAACACAGCGGGGCAAAGUGGCUGUGGUUAGACUGCC, the self-cleavage was 0.02.
For GGCAUUGCUGAACACAGCGUGGCAAAGUGGCUGUGGCUAGACUGCC, the self-cleavage came to 0.05.
The result for GGCAUCGCUCAACACAGCGUGGCAAAGUGGCUUUGGCUAGAAUGCC reads 0.1; that for GGCAUCGUUCAACACAGCGUGGCAAAUUGGCUGUGGCUAGACUGCC, 0.16; that for GGCAUGGCUCAACACAGCGUGACAAAGUGGCUGUGGCUAGACUGCC, 0.08.
